# The other results are listed elsewhere or left out.
# B1: CSA (Cytisus scoparius), P29257 (protein)
# chain: SEELSFSFTKFKTDQKNLILQRDALITPTGKLQLTTVENGKPAAYSLGRALYSTPIHIWDKSTGDEASFATFFSFVISDAPNPSTAATDGLAFFLAPADTQPQSAGGYLGLFEKDSSYNSSNQIVAVEFDTYYNSAWDPQTNPHIGIDVNTIKSKKVSSWGFKNGNVATVLITYQPSSKSLVASLVYPSGQTSDKTSYIISANVDLKATVPEWVRIGFSATTGQTDNYIETHDILSWSFKSKLPATKN
# How the values were obtained:
# Assay in all cases: glycan array binding signal (z-score within array); higher = stronger binding
# Settings in all cases: glycan notation: IUPAC condensed, linker removed
# [1] = biological target: Gal(b1-4)GlcNAc(b1-3)Gal(b1-4)GlcNAc(b1-3)Gal(b1-4)GlcNAc(b1-3)Gal(b1-4)GlcNAc(b1-3)Gal(b1-4)GlcNAc(b1-2)Man(a1-3)[Gal(b1-4)GlcNAc(b1-3)Gal(b1-4)GlcNAc(b1-3)Gal(b1-4)GlcNAc(b1-3)Gal(b1-4)GlcNAc(b1-3)Gal(b1-4)GlcNAc(b1-2)Man(a1-6)]Man(b1-4)GlcNAc(b1-4)GlcNAc
# Outline: (§1)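 The binding signal is a Z-score computed within each array. Data were drawn from 3228 arrays in the Consortium for Functional Glycomics database, restricted to those with a known protein sequence. Scores were averaged over arrays of the same protein sequence at different concentrations or buffers, and over linkers, and negative values can be taken as non-binding.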
# [2] = biological target: Gal(b1-4)GlcNAc(b1-3)Gal(b1-4)GlcNAc(b1-3)Gal(b1-4)GlcNAc(b1-3)Gal(b1-4)GlcNAc(b1-3)Gal(b1-4)GlcNAc(b1-2)Man(a1-3)[Gal(b1-4)GlcNAc(b1-3)Gal(b1-4)GlcNAc(b1-3)Gal(b1-4)GlcNAc(b1-3)Gal(b1-4)GlcNAc(b1-3)Gal(b1-4)GlcNAc(b1-2)Man(a1-6)]Man(b1-4)GlcNAc(b1-4)[Fuc(a1-6)]GlcNAc
# Outline: as §1
# [3] = biological target: Gal(b1-4)GlcNAc(b1-3)Gal(b1-4)GlcNAc(b1-3)Gal(b1-4)GlcNAc(b1-3)Gal(b1-4)GlcNAc(b1-3)Gal(b1-4)GlcNAc(b1-2)[Gal(b1-4)GlcNAc(b1-3)Gal(b1-4)GlcNAc(b1-3)Gal(b1-4)GlcNAc(b1-3)Gal(b1-4)GlcNAc(b1-3)Gal(b1-4)GlcNAc(b1-6)]Man(a1-6)[Gal(b1-4)GlcNAc(b1-3)Gal(b1-4)GlcNAc(b1-3)Gal(b1-4)GlcNAc(b1-3)Gal(b1-4)GlcNAc(b1-3)Gal(b1-4)GlcNAc(b1-2)Man(a1-3)]Man(b1-4)GlcNAc(b1-4)[Fuc(a1-6)]GlcNAc
# Outline: as §1
# [4] = biological target: Gal(b1-4)GlcNAc(b1-3)Gal(b1-4)GlcNAc(b1-3)Gal(b1-4)GlcNAc(b1-3)Gal(b1-4)GlcNAc(b1-3)Gal(b1-4)GlcNAc(b1-3)Gal(b1-4)GlcNAc(b1-2)Man(a1-3)[Gal(b1-4)GlcNAc(b1-3)Gal(b1-4)GlcNAc(b1-3)Gal(b1-4)GlcNAc(b1-3)Gal(b1-4)GlcNAc(b1-3)Gal(b1-4)GlcNAc(b1-3)Gal(b1-4)GlcNAc(b1-2)Man(a1-6)]Man(b1-4)GlcNAc(b1-4)GlcNAc
# Outline: as §1
# [5] = biological target: Gal(b1-4)GlcNAc(b1-3)Gal(b1-4)GlcNAc(b1-3)GalNAc
# Outline: as §1
# [6] = biological target: Gal(b1-4)GlcNAc(b1-3)Gal(b1-4)GlcNAc(b1-3)[Gal(b1-4)GlcNAc(b1-3)Gal(b1-4)GlcNAc(b1-6)]GalNAc
# Outline: as §1
# [7] = biological target: Gal(b1-4)GlcNAc(b1-3)Gal(b1-4)GlcNAc(b1-6)[Gal(b1-3)]GalNAc
# Outline: as §1
# [8] = biological target: Gal(b1-4)GlcNAc(b1-3)Gal(b1-4)[Fuc(a1-3)]GlcNAc(b1-3)Gal(b1-4)[Fuc(a1-3)]GlcNAc
# Outline: as §1
# [9] = biological target: Gal(b1-4)GlcNAc(b1-3)GalNAc
# Outline: as §1
# [10] = biological target: Gal(b1-4)GlcNAc(b1-3)[Fuc(a1-3)GlcNAc(b1-6)]Gal(b1-4)Glc
# Outline: as §1
# [11] = biological target: Gal(b1-4)GlcNAc(b1-3)[Gal(b1-4)GlcNAc(b1-6)]Gal(b1-4)GlcNAc
# Outline: as §1
# [12] = biological target: Gal(b1-4)GlcNAc(b1-3)[Gal(b1-4)GlcNAc(b1-6)]GalNAc
# Outline: as §1
# [13] = biological target: Gal(b1-4)GlcNAc(b1-3)[GlcNAc(b1-6)]Gal(b1-4)GlcNAc
# Outline: as §1
# [14] = biological target: Gal(b1-4)GlcNAc(b1-6)Gal(b1-4)GlcNAc
# Outline: as §1
# [15] = biological target: Gal(b1-4)GlcNAc(b1-6)Gal(b1-4)GlcNAc(b1-6)GalNAc
# Outline: as §1
# [16] = biological target: Gal(b1-4)GlcNAc(b1-6)GalNAc
# Outline: as §1
# [17] = biological target: Gal(b1-4)GlcNAc(b1-6)[Gal(b1-3)]GalNAc
# Outline: as §1
# [18] = biological target: Gal(b1-4)GlcNAc(b1-6)[Gal(b1-4)GlcNAc(b1-3)]GalNAc
# Outline: as §1
# Gal(b1-4)GlcNAc6P = biological target: Gal(b1-4)GlcNAc6P
# Outline: as §1
# Gal(b1-6)Gal = biological target: Gal(b1-6)Gal
# Outline: as §1
# Gal3S(b1-3)GalNAc = biological target: Gal3S(b1-3)GalNAc
# Outline: as §1
# Gal3S(b1-3)GlcNAc = biological target: Gal3S(b1-3)GlcNAc
# Outline: as §1
# [19] = biological target: Gal3S(b1-3)[Fuc(a1-4)]GlcNAc
# Outline: as §1
# Gal3S(b1-4)Glc = biological target: Gal3S(b1-4)Glc
# Outline: as §1
# Gal3S(b1-4)Glc6S = biological target: Gal3S(b1-4)Glc6S
# Outline: as §1
# Gal3S(b1-4)GlcNAc = biological target: Gal3S(b1-4)GlcNAc
# Outline: as §1
# Gal3S(b1-4)GlcNAc6S = biological target: Gal3S(b1-4)GlcNAc6S
# Outline: as §1
# [20] = biological target: Gal3S(b1-4)[Fuc(a1-3)]Glc6S
# Outline: as §1
# [21] = biological target: Gal3S(b1-4)[Fuc(a1-3)]GlcNAc
# Outline: as §1
# [22] = biological target: Gal3S(b1-4)[Fuc(a1-3)]GlcNAc6S
# Outline: as §1
# Gal3S4S(b1-4)GlcNAc = biological target: Gal3S4S(b1-4)GlcNAc
# Outline: as §1
# Gal3S6S(b1-4)GlcNAc = biological target: Gal3S6S(b1-4)GlcNAc
# Outline: as §1
# Gal3S6S(b1-4)GlcNAc6S = biological target: Gal3S6S(b1-4)GlcNAc6S
# Outline: as §1
# Gal4S(b1-4)GlcNAc = biological target: Gal4S(b1-4)GlcNAc
# Outline: as §1
# Gal4S6S(b1-4)GlcNAc = biological target: Gal4S6S(b1-4)GlcNAc
# Outline: as §1
# Gal6P(b1-4)GlcNAc = biological target: Gal6P(b1-4)GlcNAc
# Outline: as §1
# Gal6S(b1-3)GlcNAc = biological target: Gal6S(b1-3)GlcNAc
# Outline: as §1
binder,measurement,setting,value
B1,glycan array binding signal (z-score),[1],0.143
same,glycan array binding signal (z-score),[2],0.194
same,glycan array binding signal (z-score),[3],0.764
same,glycan array binding signal (z-score),[4],0.099
same,glycan array binding signal (z-score),[5],0.306
same,glycan array binding signal (z-score),[6],0.354
same,glycan array binding signal (z-score),[7],0.159
same,glycan array binding signal (z-score),[8],-0.174
same,glycan array binding signal (z-score),[9],-0.162
same,glycan array binding signal (z-score),[10],-0.13
same,glycan array binding signal (z-score),[11],-0.11
same,glycan array binding signal (z-score),[12],-0.003
same,glycan array binding signal (z-score),[13],-0.229
same,glycan array binding signal (z-score),[14],-0.15
same,glycan array binding signal (z-score),[15],-0.078
same,glycan array binding signal (z-score),[16],-0.194
same,glycan array binding signal (z-score),[17],-0.16
same,glycan array binding signal (z-score),[18],-0.144
same,glycan array binding signal (z-score),Gal(b1-4)GlcNAc6P,-0.196
same,glycan array binding signal (z-score),Gal(b1-6)Gal,-0.186
same,glycan array binding signal (z-score),Gal3S(b1-3)GalNAc,-0.106
same,glycan array binding signal (z-score),Gal3S(b1-3)GlcNAc,-0.188
same,glycan array binding signal (z-score),[19],-0.2
same,glycan array binding signal (z-score),Gal3S(b1-4)Glc,-0.157
same,glycan array binding signal (z-score),Gal3S(b1-4)Glc6S,-0.166
same,glycan array binding signal (z-score),Gal3S(b1-4)GlcNAc,-0.129
same,glycan array binding signal (z-score),Gal3S(b1-4)GlcNAc6S,-0.149
same,glycan array binding signal (z-score),[20],-0.102
same,glycan array binding signal (z-score),[21],-0.211
same,glycan array binding signal (z-score),[22],-0.184
same,glycan array binding signal (z-score),Gal3S4S(b1-4)GlcNAc,-0.125
same,glycan array binding signal (z-score),Gal3S6S(b1-4)GlcNAc,-0.186
same,glycan array binding signal (z-score),Gal3S6S(b1-4)GlcNAc6S,-0.215
same,glycan array binding signal (z-score),Gal4S(b1-4)GlcNAc,-0.179
same,glycan array binding signal (z-score),Gal4S6S(b1-4)GlcNAc,-0.156
same,glycan array binding signal (z-score),Gal6P(b1-4)GlcNAc,-0.289
same,glycan array binding signal (z-score),Gal6S(b1-3)GlcNAc,-0.246
